# Measured values taken from the supplement of paper PMC8728848.
# Some of the results follow.
# How the values were obtained:
# Experiment in all cases: glycan array binding signal (z-score within array); higher = stronger binding
# Conditions in all cases: glycan notation: IUPAC condensed, linker removed
# Neu5Ac(a2-8)Neu5Ac = molecular target: Neu5Ac(a2-8)Neu5Ac
# Method in brief: (§1)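 Columns mapping to the same glycan were averaged after glycan names were converted to IUPAC-condensed notation. The data come from 3228 arrays in the Consortium for Functional Glycomics database, limited to those with an available protein sequence. Binding is reported as a within-array Z-score averaged across arrays of one protein sequence and across linkers.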
# [1] = molecular target: Neu5Ac(a2-8)Neu5Ac(a2-3)Gal(b1-3)GalNAc(b1-4)[Neu5Ac(a2-3)]Gal(b1-4)Glc
# Method in brief: as §1
# [2] = molecular target: Neu5Ac(a2-8)Neu5Ac(a2-3)Gal(b1-3)GalNAc(b1-4)[Neu5Ac(a2-8)Neu5Ac(a2-3)]Gal(b1-4)Glc
# Method in brief: as §1
# [3] = molecular target: Neu5Ac(a2-8)Neu5Ac(a2-3)Gal(b1-4)Glc
# Method in brief: as §1
# [4] = molecular target: Neu5Ac(a2-8)Neu5Ac(a2-3)Gal(b1-4)GlcNAc
# Method in brief: as §1
# [5] = molecular target: Neu5Ac(a2-8)Neu5Ac(a2-3)[Gal(b1-3)GalNAc(b1-4)]Gal(b1-4)Glc
# Method in brief: as §1
# [6] = molecular target: Neu5Ac(a2-8)Neu5Ac(a2-3)[GalNAc(b1-4)]Gal(b1-4)Glc
# Method in brief: as §1
# [7] = molecular target: Neu5Ac(a2-8)Neu5Ac(a2-8)Neu5Ac
# Method in brief: as §1
# [8] = molecular target: Neu5Ac(a2-8)Neu5Ac(a2-8)Neu5Ac(a2-3)Gal(b1-4)Glc
# Method in brief: as §1
# [9] = molecular target: Neu5Ac(a2-8)Neu5Ac(a2-8)Neu5Ac(a2-3)[Gal(b1-3)GalNAc(b1-4)]Gal(b1-4)Glc
# Method in brief: as §1
# [10] = molecular target: Neu5Ac(a2-8)Neu5Ac(a2-8)Neu5Ac(a2-3)[GalNAc(b1-4)]Gal(b1-4)Glc
# Method in brief: as §1
# [11] = molecular target: Neu5Ac(a2-8)Neu5Ac(a2-8)Neu5Ac(a2-8)Neu5Ac(a2-3)[GalNAc(b1-4)]Gal(b1-4)Glc
# Method in brief: as §1
# [12] = molecular target: Neu5Ac(a2-8)Neu5Gc(a2-3)Gal(b1-4)GlcNAc
# Method in brief: as §1
# [13] = molecular target: Neu5Ac(b2-6)Gal(b1-4)GlcNAc
# Method in brief: as §1
# Neu5Ac(b2-6)GalNAc = molecular target: Neu5Ac(b2-6)GalNAc
# Method in brief: as §1
# [14] = molecular target: Neu5Ac9Ac(a2-3)Gal(b1-4)GlcNAc
# Method in brief: as §1
# [15] = molecular target: Neu5Ac9Ac(a2-6)Gal(b1-4)GlcNAc
# Method in brief: as §1
# [16] = molecular target: Neu5Gc(a2-3)Gal(b1-3)GlcNAc
# Method in brief: as §1
# [17] = molecular target: Neu5Gc(a2-3)Gal(b1-3)[Fuc(a1-4)]GlcNAc
# Method in brief: as §1
# Neu5Gc(a2-3)Gal(b1-4)Glc = molecular target: Neu5Gc(a2-3)Gal(b1-4)Glc
# Method in brief: as §1
# [18] = molecular target: Neu5Gc(a2-3)Gal(b1-4)GlcNAc
# Method in brief: as §1
# [19] = molecular target: Neu5Gc(a2-3)Gal(b1-4)GlcNAc(b1-3)Gal(b1-4)GlcNAc(b1-2)Man(a1-3)[Neu5Gc(a2-3)Gal(b1-4)GlcNAc(b1-3)Gal(b1-4)GlcNAc(b1-2)Man(a1-6)]Man(b1-4)GlcNAc(b1-4)GlcNAc
# Method in brief: as §1
# [20] = molecular target: Neu5Gc(a2-3)Gal(b1-4)[Fuc(a1-3)]GlcNAc
# Method in brief: as §1
# [21] = molecular target: Neu5Gc(a2-6)Gal(b1-4)GlcNAc
# Method in brief: as §1
# Neu5Gc(a2-6)GalNAc = molecular target: Neu5Gc(a2-6)GalNAc
# Method in brief: as §1
# [22] = molecular target: Neu5Gc(a2-8)Neu5Ac(a2-3)Gal(b1-4)GlcNAc
# Method in brief: as §1
# [23] = molecular target: Neu5Gc(a2-8)Neu5Gc(a2-3)Gal(b1-4)GlcNAc
# Method in brief: as §1
# [24] = molecular target: Neu5Gc(a2-8)Neu5Gc(a2-3)Gal(b1-4)GlcNAc(b1-3)Gal(b1-4)GlcNAc
# Method in brief: as §1
# [25] = molecular target: Neu5Gc(a2-8)Neu5Gc(a2-6)Gal(b1-4)GlcNAc
# Method in brief: as §1
# [26] = molecular target: Neu5Gc(b2-6)Gal(b1-4)GlcNAc
# Method in brief: as §1
binder,measurement,setting,value
F17-L (Escherichia coli) (protein) GPDDYVPSQIAVNTSTLPGVVIGPADAHTYPRVIGELAGTSNQYVFNGGAIALMRGKFTPALPKIGSITYTFHQGNSRDSSDFDIYDIGVSGLGIIIGMAGYWPATPLVPINSSGIYIDPVGANTNPNTYNGATASFGARLFVAFVATGRLPNGYITIPTRQLGTILLEAKRTSLNNKGLTAPVMLNGGRIQVQSQTHHHHHH,glycan array binding signal (z-score),Neu5Ac(a2-8)Neu5Ac,-0.101
same,glycan array binding signal (z-score),[1],-0.141
same,glycan array binding signal (z-score),[2],-0.106
same,glycan array binding signal (z-score),[3],-0.156
same,glycan array binding signal (z-score),[4],-0.144
same,glycan array binding signal (z-score),[5],-0.045
same,glycan array binding signal (z-score),[6],-0.122
same,glycan array binding signal (z-score),[7],-0.045
same,glycan array binding signal (z-score),[8],-0.056
same,glycan array binding signal (z-score),[9],-0.129
same,glycan array binding signal (z-score),[10],-0.149
same,glycan array binding signal (z-score),[11],-0.113
same,glycan array binding signal (z-score),[12],-0.192
same,glycan array binding signal (z-score),[13],-0.112
same,glycan array binding signal (z-score),Neu5Ac(b2-6)GalNAc,-0.061
same,glycan array binding signal (z-score),[14],-0.143
same,glycan array binding signal (z-score),[15],-0.133
same,glycan array binding signal (z-score),[16],-0.015
same,glycan array binding signal (z-score),[17],-0.112
same,glycan array binding signal (z-score),Neu5Gc(a2-3)Gal(b1-4)Glc,-0.186
same,glycan array binding signal (z-score),[18],-0.049
same,glycan array binding signal (z-score),[19],-0.008
same,glycan array binding signal (z-score),[20],-0.119
same,glycan array binding signal (z-score),[21],-0.145
same,glycan array binding signal (z-score),Neu5Gc(a2-6)GalNAc,-0.133
same,glycan array binding signal (z-score),[22],-0.117
same,glycan array binding signal (z-score),[23],-0.177
same,glycan array binding signal (z-score),[24],-0.129
same,glycan array binding signal (z-score),[25],-0.122
same,glycan array binding signal (z-score),[26],-0.15
